Results from PMC12136788.
The list shows a part of the results.

B1: chr2:226864888:226864989:+|CDS|ENSG00000144468|unk|total|mutant (ssRNA)
RNA: GGGAGUUCUACAGUCCGACGAUCUGCUGAUGAUUGGCAUUUGUAUUUCAAUAUGGCAUCCAUGCUCUGGAAAGGAAUAAAUCCCGAAAGAAGACUGGGAAGCCGAUGGUUUGCCUAUGUUAUCACCGCAUUUUCUGUACUUACCAACAGAGGAUUGAGCAUCA
B2: chr4:24540214:24540319:-|CDS|ENSG00000109606|unk|total|mutant (ssRNA)
RNA: GGGAGUUCUACAGUCCGACGAUCUACUUUGUCACAUUUUUGCUUGCUUAAGGCACCGUGUCUAACCGAUUGUCUUUUACCACCCGCUCCUGAAACUCUGAUGAGAGCCCUGGAACUUUUGAAUUACCUGGCUGCUUUAAAUGACAACAGAGGAUUGAGCAUCA
B3: chr1:84929557:84929679:-|CDS|ENSG00000153898|control|control|control (ssRNA)
RNA: GGGAGUUCUACAGUCCGACGAUCAAAUUCCAACAGAAUGGGUUUCCUGAAACGGAUUUGCAGGAAUUCCUGAAGGAAUGCAGUAGCAAAGAAGAGUAUCAGAAAGAGUCCUCAGCCUUCCUGUCCUGCAUCUGCUGUCGGAGGCAACAGAGGAUUGAGCAUCA
B4: ENSG00000198589:be:win_1451|CDS|ENSG00000198589|bound_else_gene|NA|bound_elsewhere_windowed (ssRNA)
RNA: GGGAGUUCUACAGUCCGACGAUCAUUACAGGCAAUAUUUGUCUGAUGAGAUUGAUUUGACUAUAUGUUCAACCUUGCUGGCCUUUAUCAUGGAAUUGUUGAAGAACUCAAUUGCUAUGCAGGAACAGAUGCUUGCCUGUAAGGCAACAGAGGAUUGAGCAUCA
B5: chr9:88477803:88477904:+|3pUTR|ENSG00000106723|msi1|total|mutant (ssRNA)
RNA: GGGAGUUCUACAGUCCGACGAUCGACAAUACAAGACAUGAAUCUAUGUAUAAAAUUUAUCGGCCUUUCUCAUUUACCUGCUCCCGUAUUAUUGUAUUGUGUGUGCGUGCGUGUGUGAUGUCAGGCUGCCACGUAAAACUUCAGCAACAGAGGAUUGAGCAUCA
B6: chr9:34253332:34253433:-|3pUTR|ENSG00000186638|unk|total|mutant (ssRNA)
RNA: GGGAGUUCUACAGUCCGACGAUCCUCUGAAACAGAAUUCACACACAAACCUUCAGCCAAGUUCUGCCUGCUGUGUAUCUUUUCCGCAGGAAGCAGCUCAGGACAGGGAAGACAAAGCCGCCUCCAGGUGCCAAUUACUUUAAACAACAGAGGAUUGAGCAUCA
B7: chr3:31636526:31636632:+|3pUTR|ENSG00000163527|unk|total|mutant (ssRNA)
RNA: GGGAGUUCUACAGUCCGACGAUCCAAAAUGUGAUGAGAGCUUCUUGAACCGGUAAACCCGUACAGGUCUGAGAAAGACAUAUCCGAAGAAUCAUUAUACUUCCUUGAAUUAUAUUUAUUUUCAUGUUUCUCUAAUGCAAAGAACAACAGAGGAUUGAGCAUCA
B8: ENSG00000198589:be:win_2951|CDS|ENSG00000198589|bound_else_gene|NA|bound_elsewhere_windowed (ssRNA)
RNA: GGGAGUUCUACAGUCCGACGAUCAUUUCACCACAAAUGGUAAUGAAAAUUCAAGUAUAGAGAAGACAAGUUCACUAGAAUCUGCAUCUAAUAUUGAACUGCAAACUACUAAUACAUCUUAUGAAGAAAUGAAAGCUGAGCAAGCAACAGAGGAUUGAGCAUCA
B9: chr10:116663695:116664169:-|three_prime_utr|ENSG00000165863|control|control|control (ssRNA)
RNA: GGGAGUUCUACAGUCCGACGAUCCUUUCCUUCCUACUACCGUUUUAAAAAGGGGAUGAAAUGUUUGCAGUGGCCUUUCUGCUUAGCUGGGCCAGCUCCCUGCAACUCACACGGACGGUUCCUCUCCUAGAUGGAAGCUGCCCUCAACAGAGGAUUGAGCAUCA
B10: chr3:141443649:141443750:+|CDS|ENSG00000177311|unk|total|mutant (ssRNA)
RNA: GGGAGUUCUACAGUCCGACGAUCCCUACCAUUGGACAAAAUGGAGGUUCAUUCACAGGUCCAGAACCUUUAUUAUCUGAAAACCGGAUUGGUGAAUUUUCCAGUACCGGAAGUACUUUGCCAGACACGGACCACAUGGUUAAACAACAGAGGAUUGAGCAUCA
B11: chr19:36009119:36009553:-|three_prime_utr|ENSG00000239382|control|control|control (ssRNA)
RNA: GGGAGUUCUACAGUCCGACGAUCGCUGGUGCUCCGCGGCCCCGCCUACACGCGUCUUCUCCACGGCAUCGCCGCCGCCCGCGUAGACGCGCUGGACGCCGCCUCCUCGCCGCCCAAUGCGGCAGCCUGCCCGUCGGCGCGGCCCAACAGAGGAUUGAGCAUCA
B12: ENSG00000087460:stop:overlap|stop_codon|ENSG00000087460|stop_codon|NA|stop_codon (ssRNA)
RNA: GGGAGUUCUACAGUCCGACGAUCGAGGCGCCUUCGGCUCGGGCCAUGGCGCCCGGCGCCGGGGGCGCGAGGAGCGGCUCAUCUAGUCAGACCCCCCACCCCGCCACCGCCACCAGACACCACCAUCGCUGUGUAGUGUGCUGGCAACAGAGGAUUGAGCAUCA
B13: ENSG00000107863:be:win_5051|CDS|ENSG00000107863|bound_else_gene|NA|bound_elsewhere_windowed (ssRNA)
RNA: GGGAGUUCUACAGUCCGACGAUCGUUUAGAUAGCCGGAGACAGCUCUUCAGUUCCCAUAAACUCAUCGAAUGUGAUACUCUUUCCAGGAAAAAAUCAGCUAGAUUCAAGUCAGAUAGUGGAAGUCUAGGAGAUGCCAAGAAUGCAACAGAGGAUUGAGCAUCA
B14: chr3:127036549:127036650:+|3pUTR|ENSG00000114554|msi1|total|mutant (ssRNA)
RNA: GGGAGUUCUACAGUCCGACGAUCGUCUACUGGGACAGCAGUCUCCGAGCUACUCCGUACCUCCCUCUGCCAGGUCGUGGAGUCCGGCCCCAGUCCCUACUUGUCACUGGUUCCCACUGUGCUCCUAACUGUGCAGCACCUGGGCAACAGAGGAUUGAGCAUCA
B15: chr12:39550845:39550946:-|3pUTR|ENSG00000173208|unk|FALSE|unique (ssRNA)
RNA: GGGAGUUCUACAGUCCGACGAUCGGUUCCAAGUAUAGUUUCAUAUUUGGCAAUAGAUUCAUCUUAUUCUAAUAUGUUUGGAAUAGCUUUUUGAUUCAAUGAGUCUAGGAAAAUCUGUUACACAUUGAAACCCAAGUCCAGAGACAACAGAGGAUUGAGCAUCA
B16: chr11:74334375:74334476:-|3pUTR|ENSG00000165434|msi1|total|mutant (ssRNA)
RNA: GGGAGUUCUACAGUCCGACGAUCUUUUUGUUUUAUUUUUAAAAUGUGUAAAACAUCUUUUGUUUUAUAUGCUUUUAAGAAUGCCGAUUGUAAUUCCGGAAAUGGCAUAUAUUCUGCAAAGUGGUAUAAUGUUGUAUAUAUGAACAACAGAGGAUUGAGCAUCA
B17: chr17:8173470:8173636:-|3pUTR|ENSG00000179029|msi1|total|mutant (ssRNA)
RNA: GGGAGUUCUACAGUCCGACGAUCUGUUUGUCUGUAUCGUCAGGUGGGAUAAUCCUUACCUGUUCCUCCUCCGGAGGGCAGAUCCGAACAUGAUGAUUGGAGAUGCAUGAAACGUGAUUAACGUCUCUGCGUAAUCAGGACUUGCAACAGAGGAUUGAGCAUCA
B18: chr22:24226630:24226767:-|CDS|ENSG00000099998|control|control|control (ssRNA)
RNA: GGGAGUUCUACAGUCCGACGAUCCUUCUCAACAGAGUCUAUGGCCAGGCCUGAAGGGAGGGUGAACGUGUACCACCACCUUGUAGAGACGCUCAAGUUUGCCAAGGGGCAGAGGUGGAGGCUGGGGGACCCUCGAAGCCACCCCAACAGAGGAUUGAGCAUCA
B19: chr5:10679541:10679642:-|3pUTR|ENSG00000112977|msi1|total|mutant (ssRNA)
RNA: GGGAGUUCUACAGUCCGACGAUCCUUCAAGGCCCUGUCACCACCUAUUUCCUGAUCAGUUGGUAUAAACUGAGGGUGGCUUUCCGAGACCCAGACUUGGUUGGCAGCGCUGCCAUGGAACACCCCAGCAAGCACCUCCCAGCCCAACAGAGGAUUGAGCAUCA
B20: chr12:57010726:57010903:-|three_prime_utr|ENSG00000166863|control|control|control (ssRNA)
RNA: GGGAGUUCUACAGUCCGACGAUCGAGGGACCCAUAAUUGCAGCUUUCAUAAUCUUACCAUUGAGGGAGCAUUCCCAACCUGUUAGGUGUCAGGCAGAAUAGGACAUAAGGUUUCUGGGAGCUGGCAUUUAAAGAUUAGAUGAGCAACAGAGGAUUGAGCAUCA
B21: chr4:41013971:41014072:-|CDS|ENSG00000163697|msi1|total|mutant (ssRNA)
RNA: GGGAGUUCUACAGUCCGACGAUCGCAGGACCCCAACAAAAACCUGAGCCCCACUGCAGUCAUCAACAUAACUUCUGAGAAGUCCGAGGGUAAAGAGCCCCACCCACAGGAUUCCUCGAGCUGUGAGAUUUUACCCUCCCAGCCCAACAGAGGAUUGAGCAUCA
B22: chr15:42943230:42943331:-|3pUTR|ENSG00000159459|msi1|total|mutant (ssRNA)
RNA: GGGAGUUCUACAGUCCGACGAUCAUUAUGCUUAUGAAGUUUACUUACAAACAAGCAACUGAGUCACUUUAUUUUCUUCCGUGCCGUAUGUGAAGGCACUGGUUCAACAGGAUGGCUCCAGAACUGUGUUUUUCUAAUGUUUGGCAACAGAGGAUUGAGCAUCA

Molecular target: T1, UNK ZnF1-6 (called full-length) (human, UniProt Q9C0B0 30-357)
T1 sequence: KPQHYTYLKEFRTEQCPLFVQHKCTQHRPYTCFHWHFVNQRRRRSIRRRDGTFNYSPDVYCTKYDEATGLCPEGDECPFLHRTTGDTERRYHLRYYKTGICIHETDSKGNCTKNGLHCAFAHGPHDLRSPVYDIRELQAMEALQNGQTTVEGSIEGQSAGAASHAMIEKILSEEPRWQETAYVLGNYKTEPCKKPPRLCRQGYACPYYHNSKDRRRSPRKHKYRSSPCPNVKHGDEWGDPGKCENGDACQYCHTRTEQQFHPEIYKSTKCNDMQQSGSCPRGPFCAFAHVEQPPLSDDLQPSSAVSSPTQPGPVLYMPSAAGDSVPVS
Test: nsRBNS (natural sequence RNA bind-n-seq); RBNS binding buffer (assumed for nsRBNS): 25 mM Tris pH 7.5, 150 mM KCl, 3 mM MgCl2, 0.01% Triton X-100, 500 ug/ml BSA, 20 U/ml SUPERase-In, 4 C; UNK is unkempt and MSI1 is Musashi-1; names of the RNAs are library labels; protein concentration not given here; high values mean tight binding

Binder | binding signal [enrichment R]
B1 | 0.31
B2 | 0.373
B3 | 0.792
B4 | 0.223
B5 | 0.552
B6 | 0.674
B7 | 0.279
B8 | 0.382
B9 | 0.719
B10 | 0.452
B11 | 0.625
B12 | 0.557
B13 | 0.645
B14 | 0.724
B15 | 0.359
B16 | 0.345
B17 | 0.686
B18 | 1.02
B19 | 1.14
B20 | 0.818
B21 | 0.876
B22 | 0.291
